{"source": "the supplement of paper PMC8728848", "binders": {"B1": {"name": "Epa13 (Candida glabrata) (protein)", "chain": "MGSSHHHHHHSSGLVPRGSHMASDSSENGYAHGCSPSIRAKLKPGLSMEIYSYALRPTDDHCWDSAYLDPMFPRTGYLTHKLLGKAEGIIGPLNFLAKNPACIPAVSTLPLAFHFPKPFTITNFTMLLYGYLSPKKTGKYTFKLLADDLLLMNFGADNAFDCCSHDATKDNIGEYVAYSVWPGVNKNVTVYLESGIYYPLRLFFNNRDAIAQLDFAYYFNDSPIRQTDFSGMFFSIPDSVKCPANI"}}, "assay_in_all_cases": "glycan array binding signal (z-score within array); higher = stronger binding", "settings_in_all_cases": "glycan notation: IUPAC condensed, linker removed", "key": {"[1]": {"target": "Neu5Ac(a2-6)GlcNAc(b1-4)GlcNAc(b1-4)GlcNAc", "how_it_was_run": "(§1)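 The binding signal is a Z-score computed within each array. Data were drawn from 3228 arrays in the Consortium for Functional Glycomics database, restricted to those with a known protein sequence. Scores were averaged over arrays of the same protein sequence at different concentrations or buffers, and over linkers, and negative values can be taken as non-binding.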"}, "[2]": {"target": "Neu5Ac(a2-8)Neu5Ac", "how_it_was_run": "as §1"}, "[3]": {"target": "Neu5Ac(a2-8)Neu5Ac(a2-3)Gal(b1-3)GalNAc(b1-4)[Neu5Ac(a2-3)]Gal(b1-4)Glc", "how_it_was_run": "as §1"}, "[4]": {"target": "Neu5Ac(a2-8)Neu5Ac(a2-3)Gal(b1-3)GalNAc(b1-4)[Neu5Ac(a2-8)Neu5Ac(a2-3)]Gal(b1-4)Glc", "how_it_was_run": "as §1"}, "[5]": {"target": "Neu5Ac(a2-8)Neu5Ac(a2-3)Gal(b1-4)Glc", "how_it_was_run": "as §1"}, "[6]": {"target": "Neu5Ac(a2-8)Neu5Ac(a2-3)Gal(b1-4)GlcNAc", "how_it_was_run": "as §1"}, "[7]": {"target": "Neu5Ac(a2-8)Neu5Ac(a2-3)[Gal(b1-3)GalNAc(b1-4)]Gal(b1-4)Glc", "how_it_was_run": "as §1"}, "[8]": {"target": "Neu5Ac(a2-8)Neu5Ac(a2-3)[GalNAc(b1-4)]Gal(b1-4)Glc", "how_it_was_run": "as §1"}, "[9]": {"target": "Neu5Ac(a2-8)Neu5Ac(a2-8)Neu5Ac", "how_it_was_run": "as §1"}, "[10]": {"target": "Neu5Ac(a2-8)Neu5Ac(a2-8)Neu5Ac(a2-3)Gal(b1-4)Glc", "how_it_was_run": "as §1"}, "[11]": {"target": "Neu5Ac(a2-8)Neu5Ac(a2-8)Neu5Ac(a2-3)[Gal(b1-3)GalNAc(b1-4)]Gal(b1-4)Glc", "how_it_was_run": "as §1"}, "[12]": {"target": "Neu5Ac(a2-8)Neu5Ac(a2-8)Neu5Ac(a2-3)[GalNAc(b1-4)]Gal(b1-4)Glc", "how_it_was_run": "as §1"}, "[13]": {"target": "Neu5Ac(a2-8)Neu5Ac(a2-8)Neu5Ac(a2-8)Neu5Ac(a2-3)[GalNAc(b1-4)]Gal(b1-4)Glc", "how_it_was_run": "as §1"}, "[14]": {"target": "Neu5Ac(a2-8)Neu5Gc(a2-3)Gal(b1-4)GlcNAc", "how_it_was_run": "as §1"}, "[15]": {"target": "Neu5Ac(b2-6)Gal(b1-4)GlcNAc", "how_it_was_run": "as §1"}, "[16]": {"target": "Neu5Ac(b2-6)GalNAc", "how_it_was_run": "as §1"}, "[17]": {"target": "Neu5Ac9Ac(a2-3)Gal(b1-3)GlcNAc", "how_it_was_run": "as §1"}, "[18]": {"target": "Neu5Ac9Ac(a2-3)Gal(b1-4)GlcNAc", "how_it_was_run": "as §1"}, "[19]": {"target": "Neu5Ac9Ac(a2-6)Gal(b1-4)GlcNAc", "how_it_was_run": "as §1"}, "[20]": {"target": "Neu5Gc(a2-3)Gal(b1-3)GlcNAc", "how_it_was_run": "as §1"}, "[21]": {"target": "Neu5Gc(a2-3)Gal(b1-3)[Fuc(a1-4)]GlcNAc", "how_it_was_run": "as §1"}, "[22]": {"target": "Neu5Gc(a2-3)Gal(b1-4)Glc", "how_it_was_run": "as §1"}, "[23]": {"target": "Neu5Gc(a2-3)Gal(b1-4)GlcNAc", "how_it_was_run": "as §1"}, "[24]": {"target": "Neu5Gc(a2-3)Gal(b1-4)GlcNAc(b1-3)Gal(b1-4)GlcNAc(b1-2)Man(a1-3)[Neu5Gc(a2-3)Gal(b1-4)GlcNAc(b1-3)Gal(b1-4)GlcNAc(b1-2)Man(a1-6)]Man(b1-4)GlcNAc(b1-4)GlcNAc", "how_it_was_run": "as §1"}, "[25]": {"target": "Neu5Gc(a2-3)Gal(b1-4)[Fuc(a1-3)]GlcNAc", "how_it_was_run": "as §1"}, "[26]": {"target": "Neu5Gc(a2-6)Gal(b1-4)GlcNAc", "how_it_was_run": "as §1"}, "[27]": {"target": "Neu5Gc(a2-6)GalNAc", "how_it_was_run": "as §1"}, "[28]": {"target": "Neu5Gc(a2-8)Neu5Ac(a2-3)Gal(b1-4)GlcNAc", "how_it_was_run": "as §1"}, "[29]": {"target": "Neu5Gc(a2-8)Neu5Gc(a2-3)Gal(b1-4)GlcNAc", "how_it_was_run": "as §1"}, "[30]": {"target": "Neu5Gc(a2-8)Neu5Gc(a2-3)Gal(b1-4)GlcNAc(b1-3)Gal(b1-4)GlcNAc", "how_it_was_run": "as §1"}, "[31]": {"target": "Neu5Gc(a2-8)Neu5Gc(a2-6)Gal(b1-4)GlcNAc", "how_it_was_run": "as §1"}, "[32]": {"target": "Neu5Gc(b2-6)Gal(b1-4)GlcNAc", "how_it_was_run": "as §1"}}, "note": "Some of the results follow.", "data": [{"binder": "B1", "values": [{"measurement": "glycan array binding signal (z-score)", "setting": "[1]", "value": -0.375}, {"measurement": "glycan array binding signal (z-score)", "setting": "[2]", "value": 0.117}, {"measurement": "glycan array binding signal (z-score)", "setting": "[3]", "value": -0.033}, {"measurement": "glycan array binding signal (z-score)", "setting": "[4]", "value": 0.177}, {"measurement": "glycan array binding signal (z-score)", "setting": "[5]", "value": -0.414}, {"measurement": "glycan array binding signal (z-score)", "setting": "[6]", "value": -0.449}, {"measurement": "glycan array binding signal (z-score)", "setting": "[7]", "value": -0.07}, {"measurement": "glycan array binding signal (z-score)", "setting": "[8]", "value": -0.273}, {"measurement": "glycan array binding signal (z-score)", "setting": "[9]", "value": 0.009}, {"measurement": "glycan array binding signal (z-score)", "setting": "[10]", "value": 0.23}, {"measurement": "glycan array binding signal (z-score)", "setting": "[11]", "value": -0.388}, {"measurement": "glycan array binding signal (z-score)", "setting": "[12]", "value": -0.219}, {"measurement": "glycan array binding signal (z-score)", "setting": "[13]", "value": -0.021}, {"measurement": "glycan array binding signal (z-score)", "setting": "[14]", "value": -0.482}, {"measurement": "glycan array binding signal (z-score)", "setting": "[15]", "value": -0.26}, {"measurement": "glycan array binding signal (z-score)", "setting": "[16]", "value": -0.624}, {"measurement": "glycan array binding signal (z-score)", "setting": "[17]", "value": -0.424}, {"measurement": "glycan array binding signal (z-score)", "setting": "[18]", "value": -0.359}, {"measurement": "glycan array binding signal (z-score)", "setting": "[19]", "value": -0.378}, {"measurement": "glycan array binding signal (z-score)", "setting": "[20]", "value": -0.125}, {"measurement": "glycan array binding signal (z-score)", "setting": "[21]", "value": -0.37}, {"measurement": "glycan array binding signal (z-score)", "setting": "[22]", "value": 0.553}, {"measurement": "glycan array binding signal (z-score)", "setting": "[23]", "value": -0.188}, {"measurement": "glycan array binding signal (z-score)", "setting": "[24]", "value": -0.434}, {"measurement": "glycan array binding signal (z-score)", "setting": "[25]", "value": -0.285}, {"measurement": "glycan array binding signal (z-score)", "setting": "[26]", "value": -0.29}, {"measurement": "glycan array binding signal (z-score)", "setting": "[27]", "value": -0.571}, {"measurement": "glycan array binding signal (z-score)", "setting": "[28]", "value": 0.122}, {"measurement": "glycan array binding signal (z-score)", "setting": "[29]", "value": -0.037}, {"measurement": "glycan array binding signal (z-score)", "setting": "[30]", "value": -0.46}, {"measurement": "glycan array binding signal (z-score)", "setting": "[31]", "value": -0.199}, {"measurement": "glycan array binding signal (z-score)", "setting": "[32]", "value": 0.559}]}]}
